This is an account of results in the supplement of paper PMC11417369.

± gives the standard deviation of the averaged measurements. This is one part of the list.

The test system of this assay is PfAP2-G AP2 domain (GST-tagged). In words: gcPBM binding intensity (ln(normalized median fluorescence intensity)); higher = stronger DNA binding. The method, boiled down: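 DNA-binding domains from P. falciparum, fused to GST and produced in E. coli, were put on an Agilent 4 × 180k double-stranded probe array for 1 h in 1× PBS holding 1% milk, 0.2 mg/ml BSA, 0.5% salmon testes DNA and 0.03% Triton X-100. Probes were primer-extended, 36 bp long and drawn from intergenic genomic regions, with negative controls included. After Alexa488 anti-GST antibody detection and a 488 nm scan, binding intensity was set as the highest Masliner-normalised natural-log median intensity across replicate spots of either probe orientation.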
Regarding “TTTTAATGTACCAGTGTGCACCTTGCGTACATATTA [GTGCAC_site9957]”, the “gcPBM binding intensity (ln)” value was 11.6 ± 0.97.

For “ATTCAAAAGATGTATACACACATGTGTATAATATAA [CACACA_site7197]”, the “gcPBM binding intensity (ln)” value amounted to 10.28 ± 0.085.

As for “AATAATATATATATAATACACACTATTATAATCACA [CACACA_site1310]”, the “gcPBM binding intensity (ln)” value worked out at 9.93 ± 0.13.

Regarding “TTGGCATACGGACACACACACACACCCAGACATATA [CACACA_site4492]”, the “gcPBM binding intensity (ln)” value is 11.2 ± 0.88.

In the case of “AATAATAAAAAATATACACACATATATATATATATA [CACACA_site25]”, the “gcPBM binding intensity (ln)” value was 10 ± 0.4.

With “AAAAAAAAAAAAAAATGTACATATGGTATGCATATA [XGTACX_site3225]”, the “gcPBM binding intensity (ln)” value was 11.1 ± 0.64.

On to “GCTTATAAAGGCAGAAGTACTGTATTCCTATATATA [XGTACX_site8865]”, for which the “gcPBM binding intensity (ln)” value stood at 11 ± 0.53.

“AAAATATATACTCCATCACACACCAAAAAGAAAAAA [CACACA_site2542]”: the “gcPBM binding intensity (ln)” value amounted to 10.2 ± 0.38.

As to “TTATACAAATTCATGGGTACAAACAAACATATATCA [XGTACX_site6237]”, the “gcPBM binding intensity (ln)” value amounted to 11.1 ± 0.72.

With “TATACCTATAAATACACACACATATAAATAAATATA [CACACA_site6153]”, the “gcPBM binding intensity (ln)” value is 10.05 ± 0.071.

Turning to “ACGTGATAAATAAATACATGCATAGAAAGATGCATA [TGCATGCA_site91]”, the “gcPBM binding intensity (ln)” value stood at 9.75 ± 0.071.

For the sequence “TATATATATATATATTGTACTAGTGCATATATATAC [XGTACX_site7926]”, the “gcPBM binding intensity (ln)” value came out at 10.9 ± 0.45.

Turning to “TTTAAATATTTTAATACACACACGATATGTACAAAA [CACACA_site4455]”, the “gcPBM binding intensity (ln)” value was 11.2 ± 0.76.

As to “TACAATGAAAAAATAACATGCAATTATATTTCTCTT [TGCATGCA_site833]”, the “gcPBM binding intensity (ln)” value turned out to be 9.43 ± 0.28.

As to “AATTTTGTTGAGCACACACACATACATACATACATA [CACACA_site3154]”, the “gcPBM binding intensity (ln)” value is 10.4 ± 0.25.

Regarding “AAATATATTTTATTTTGTACTTATGTATAAAATATA [XGTACX_site914]”, the “gcPBM binding intensity (ln)” value is 11.1 ± 0.82.

“ATAACATATTTCTTTTGTACTCAAAATAAAATTAAT [XGTACX_site2479]”: the “gcPBM binding intensity (ln)” value was 11.4 ± 1.1.

As to ATTAAATTTCCTTGAGTGCACATTTTGTTAAAATAT, the “gcPBM binding intensity (ln)” value came out at 10.5 ± 0.3.

For the sequence “GTGCCATTTAAAAAATGTACAAGAAAATGTTCATCA [XGTACX_site2865]”, the “gcPBM binding intensity (ln)” value was 10.8 ± 0.33.

On to “TGGTATTGAATTTTTTGTACACATAAAATATATATA [XGTACX_site7614]”, for which the “gcPBM binding intensity (ln)” value came to 11.2 ± 0.88.

As for “TATTTTAATTTTTTTTTGTTTTTTCTAATACATGTA [CACACA_negctrl_site1399]”, the “gcPBM binding intensity (ln)” value stood at 9.605 ± 0.049.

For the sequence “TTTTTTTTGGTATAATGTACATTTTCACTTATGTAT [XGTACX_site3259]”, the “gcPBM binding intensity (ln)” value amounted to 10.9 ± 0.44.

As to “ATTTTATTTTCTCACACACACATATATATATATATA [CACACA_site5781]”, the “gcPBM binding intensity (ln)” value amounted to 10.3 ± 0.47.

In the case of “ACATATGTTAAAAAGGCATGCATTCTTTTTATTTTA [TGCATGCA_site1043]”, the “gcPBM binding intensity (ln)” value came out at 9.66 ± 0.11.

As to “ACCAAAAAAAAAAAAAAAAAAATATACATATATATA [GTGCAC_negctrl_site582]”, the “gcPBM binding intensity (ln)” value amounted to 9.57 ± 0.23.
